# Assay results from the supplement of paper PMC3334620.
# Whole data set: some 33,000 sequences, median “E-score (-0.5 to 0.5)” near -0.012, cut for the highest 2% near 0.29. Some of the results follow.
# Target: T1, Ybr033w (UniProt P38073)
# T1 sequence: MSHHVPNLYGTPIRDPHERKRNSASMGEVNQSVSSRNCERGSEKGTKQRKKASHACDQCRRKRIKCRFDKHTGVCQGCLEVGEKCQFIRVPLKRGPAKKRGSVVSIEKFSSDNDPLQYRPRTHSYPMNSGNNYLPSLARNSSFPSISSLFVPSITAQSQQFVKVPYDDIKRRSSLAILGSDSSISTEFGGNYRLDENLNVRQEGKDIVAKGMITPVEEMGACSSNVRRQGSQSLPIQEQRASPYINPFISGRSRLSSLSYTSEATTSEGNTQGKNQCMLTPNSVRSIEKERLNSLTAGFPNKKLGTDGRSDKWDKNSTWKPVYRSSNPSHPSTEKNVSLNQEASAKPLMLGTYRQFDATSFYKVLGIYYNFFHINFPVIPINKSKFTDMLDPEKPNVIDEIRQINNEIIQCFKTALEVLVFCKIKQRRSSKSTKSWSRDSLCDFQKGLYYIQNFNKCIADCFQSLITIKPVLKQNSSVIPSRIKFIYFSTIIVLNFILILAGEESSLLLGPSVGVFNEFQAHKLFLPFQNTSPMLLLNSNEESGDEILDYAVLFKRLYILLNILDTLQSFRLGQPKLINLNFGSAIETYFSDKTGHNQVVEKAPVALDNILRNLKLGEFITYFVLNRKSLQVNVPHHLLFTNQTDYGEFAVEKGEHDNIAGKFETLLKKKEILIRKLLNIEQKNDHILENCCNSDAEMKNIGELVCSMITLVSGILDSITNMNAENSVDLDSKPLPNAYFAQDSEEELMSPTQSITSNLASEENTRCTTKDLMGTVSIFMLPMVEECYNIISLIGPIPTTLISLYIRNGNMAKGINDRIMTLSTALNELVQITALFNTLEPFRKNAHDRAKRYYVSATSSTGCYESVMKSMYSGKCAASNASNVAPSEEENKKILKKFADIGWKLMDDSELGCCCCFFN
# Test: PBM E-score (8-mer binding enrichment) (E-score (-0.5 to 0.5)); higher = stronger / more preferred TF binding; most listed sequences are background and not binding sites
# Conditions: protein concentration: 200 nM; construct: GST-full length
# Procedure, shortened: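 E-scores (a modified Wilcoxon-Mann-Whitney statistic) were assigned by the Universal PBM Analysis Suite to every ungapped eight-base word pooled with its reverse complement. The input came from universal all-10-mer Agilent arrays made double-stranded by primer extension and probed with GST-tagged yeast transcription factors at about 100-200 nM. Fluorescent anti-GST detected bound protein, and masliner normalised the scans.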
row,Sequence,PBM E-score
1,AATTAAGG,0.129
2,TCTCGGAA,0.08
3,AGCCAAAG,-0.0877
4,CAGGGAAC,0.0159
5,AATTCAGT,-0.0238
6,AATACGCT,0.12
7,AAGAACCA,0.174
8,AAATGTGC,0.0669
9,GGCTCCGA,-0.219
10,TGCGACCA,0.0839
11,AATTACAT,0.238
12,CGGGACAA,-0.0717
13,CAGATGGC,-0.0398
14,CATATGGC,0.0842
15,ACATGAAA,0.00228
16,GTTGGTGA,0.0876
17,ATTTGAGG,-0.135
18,GGTCACTA,-0.0457
19,GATGTAGA,-0.1
20,GGCACCAA,-0.0873
21,ATTCGGAC,0.131
22,ATCGGTCG,-0.00188
23,AACGCAAC,0.00161
24,ACTAATAT,0.118
25,GTAAATGA,0.235

row,Sequence,PBM E-score
1,AAAGCTCG,-0.0135
2,GGTCTACA,0.136
3,ACTTCTCT,0.0454
4,CTGACTTA,0.215
5,AATTGCCC,0.092
6,TACCGTGA,-0.033
7,GAGACGGA,0.07
8,CTTACATC,0.0824
9,ATGGTGCA,0.0181
10,ATAGAGCG,-0.117
11,CTTGAGTC,-0.156
12,ACTGTCAA,0.00318
13,ATCGCCCG,-0.19
14,ACCGGTCA,-0.2
15,CCAGAACG,-0.124
16,AGCAGGCT,-0.291
17,CCATCGTC,-0.148
18,CACTGGTA,-0.102
19,ATCACTAG,-0.0619
20,AATAGAAT,0.278
21,GGTACACC,-0.202
22,GAGTCCAA,0.0691
23,GTACGCAC,-0.138
24,TATTCGAA,0.0583
25,CACCGGTA,-0.0543

row,Sequence,PBM E-score
1,CAGCTGTA,-0.19
2,CAGAAAAC,0.173
3,GTCAACAC,0.115
4,ACGGCTCG,0.135
5,CAACAGAC,0.139
6,TGACGGCA,-0.224
7,AATGTACT,0.144
8,CTAGTCCC,-0.204
9,CCCTAGCG,-0.311
10,ACAATCAA,0.165
11,GACGGAGC,-0.179
12,AAATGATG,0.248
13,AACGACAA,0.175
14,AGATTATC,0.301
15,ATCGGTGA,0.0274
16,AGTCCACG,-0.159
17,ATTACCGA,0.0859
18,CACATTCG,0.105
19,CTCCCTAA,-0.0573
20,AGCGAAGG,-0.154
21,CCGTTATC,0.0243
22,AATGCTCA,0.188
23,CGCGAACA,0.0214
24,CTTTCCGA,0.0129
25,ATGACCGC,-0.254

row,Sequence,PBM E-score
1,ACTGATCA,0.111
2,AATTGCTC,0.0628
3,ATAGATTA,0.329
4,GCCCGAAA,0.0856
5,CCGCTTTA,0.0166
6,GGGTGTTA,-0.071
7,AGACGCTG,-0.211
8,GCCGTCCA,-0.00942
9,CATCGCAG,-0.178
10,GGCTTCCA,-0.241
11,ATGATAAC,0.156
12,AGGTATGA,0.0821
13,ATGCAACG,-0.129
14,ACAACGTC,-0.0691
15,CAGATCTA,-0.039
16,CACCATGA,-0.0244
17,ATCACATA,0.215
18,GACGGTAC,0.143
19,GGATTCCA,0.0882
20,CACGGGTC,-0.288
21,CGCCCCTC,-0.382
22,GATGAGCC,-0.124
23,CCGTGTAG,-0.118
24,GCGTAAGC,-0.18
25,CAGCTATA,-0.0519

row,Sequence,PBM E-score
1,CGCTAAGA,-0.0745
2,ATGCATAG,0.082
3,CTCAGTCC,-0.0963
4,CAACCATA,0.196
5,CGAATCAA,0.19
6,CGCGTGCA,-0.171
7,ACTAGCAG,0.0656
8,CTGTAGTC,-0.0937
9,AGCTCTAC,-0.131
10,GAATTCCC,-0.223
11,ATACTAAG,0.101
12,CCTTGCCA,-0.0197
13,ATGCTGCC,-0.107
14,CCGAGAAA,0.179
15,GAAGCGCA,-0.118
16,GCCTCTAC,-0.179
17,ATAAGTTA,0.213
18,GGTAATAC,0.137
19,CCAGCAGC,-0.212
20,AGGGTCAA,-0.0277
21,ACCGATAA,0.189
22,GTCGTAAC,0.0613
23,AGCCCTTA,-0.0287
24,GACGTATA,-0.0124
25,ACGTCAGT,-0.153

row,Sequence,PBM E-score
1,CACGCCAA,-0.00942
2,ATAAAAGC,0.226
3,GATGAGGC,-0.397
4,TTACCAAA,0.235
5,AGTGGTTC,0.00899
6,CCTGTACG,-0.0856
7,AGTGTCGG,0.0114
8,CACGTCGG,-0.194
9,CAATCGGA,0.0902
10,ATAAACGG,0.245
11,TACATACA,0.245
12,GATGATAC,0.0761
13,AGAAAAGG,-0.0204
14,GCTAATAA,0.0756
15,CACCCCTG,-0.268
16,ACCGTAGG,-0.348
17,CAGGCAGG,-0.183
18,AATCGTCA,-0.0213
19,GCCCGCGC,-0.0448
20,CGCGTTAA,-0.0483
21,CGGCGACG,-0.135
22,CCTATCCG,-0.163
23,AATCGTGA,0.0113
24,GGGAGATA,-0.0454
25,AGTATGAT,0.168

row,Sequence,PBM E-score
1,TCATCGAA,0.109
2,CGAACACA,0.0166
3,AGAGAATC,0.0652
4,CCGATCGC,-0.129
5,GTCTAAAA,-0.0699
6,CCGGTGAG,-0.229
7,GGCGAGCA,-0.0236
8,CGCGGTTA,-0.0575
9,ACGTTTTG,-0.019
10,AAAGGTGA,0.0608
11,GGATTGCA,0.0644
12,CGGAAGTA,0.14
13,GATAATAA,0.194
14,CGGGCATC,-0.173
15,GATATTGC,0.101
16,CCCCACCG,-0.222
17,AGGTGCCG,-0.118
18,GCCGAAGC,-0.183
19,ATGCCCAG,-0.131
20,CAGTAAGC,0.029
21,CGCTAAAC,-0.083
22,CCGTAGAG,-0.206
